Results as given in PubChem BioAssay AID1745845 (National Center for Advancing Translational Sciences (NCATS), 2022).
“And” between values parts separate entries of the source, which are not always exact repeats. Equal values may be shown once. The campaign covered roughly 360,000 compounds. About 2,600 (0.72%) were called active. This list was built around the results that the source calls inconclusive (neither active nor inactive); the mix of calls is not that of the screen. Calls come from the whole dose curve; as a rule, active = well fitted inhibition curve with a large enough effect; inconclusive = small, poorly fitted or top-dose-only effect; inactive = no such curve, though single readings can be large or run the other way. Potencies beside an inconclusive call are fits to weak or partial responses and may not hold up.

assay: Primary qHTS for Inhibitors of ATXN expression; conditions: HEK-293 ATXN2-luciferase reporter, luminescence, 24 h; activity change, negative = inhibition: at 57 µM (top of the series); note: nearly all actives have a fitted effect of over 55% in size
Outline: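 qHTS (up to 57 uM final) was run with 24 h compound exposure of reporter cells at 37 °C. Each well was multiplexed: SteadyGlo luminescence measured ATXN2-luciferase expression after a fluorogenic Gly-Phe-AFC viability readout (25 uM final).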
% is set by controls: 0 for no effect and ±100 for the full control effect; potency is the fitted concentration of half-maximal effect; tags give direction and shape of the fitted curve.

Compound	Potency	activity change, negative = inhibition
Cc1cccc(/C=C(\c2nc3ccccc3[nH]2)S(=O)(=O)c2ccccc2)c1	inconclusive: 8.44 µM [inhibitor, single point]	–
CCOc1ccc2nc(NC(=O)C3CCN(c4cnccn4)CC3)sc2c1	inconclusive: 39.8 µM [inhibitor, partial curve, poor fit]	–
[O-][n+]1onc2c1CCc1c-2nn(-c2ccccc2Cl)[n+]1[O-]	active: 28.2 µM	–
CCOc1ccc(-c2cccc(NS(=O)(=O)c3c(C)cc(C)cc3C)c2)nn1	inconclusive: 39.8 µM [inhibitor, single point]	–
CCN(C(=O)C1CCN(S(=O)(=O)c2ccc3c(c2)CCCN3C(C)=O)CC1)c1cccc(C)c1	inactive	–
CC(C)c1nn(-c2c(Cl)cccc2Cl)c2nc(Cc3ccc(OCCO)cc3)[nH]c(=O)c12	active: 0.0343 µM	–
Cc1cc(NC(=O)c2coc(=O)c(Br)c2)ccc1C(C)C	inconclusive: 39.8 µM [inhibitor, single point]	–
CNc1c([N+](=O)[O-])cnn1-c1ccc(F)cc1	inconclusive: 42.3 µM [inhibitor, single point]	–
Cc1nn2c(c1-c1ccc(Cl)cc1)N=C(c1ccco1)CC2c1ccccc1 (stereo not given)	inconclusive: 25.1 µM [inhibitor, single point]	–
CCOC(=O)[C@H]1[C@H]2COc3ccc(OC)cc3[C@@H]2N2C(=O)c3cc(OC)c(OC)cc3NC(=O)[C@@]12C	inconclusive: 39.8 µM [inhibitor, partial curve, poor fit]	–
COCCNC(=O)c1cccc(OC2CCN(Cc3ccc(OC(F)F)cc3)CC2)c1	inconclusive: 2.24 µM [inhibitor, partial curve, poor fit]	–
COc1ccc(-c2noc(CCC(=O)NCCCN3CCC(C)CC3)n2)cc1	inactive	–
CCCCn1c2ccc(F)cc2c2nnc(NN)nc21	inconclusive: 29.9 µM [inhibitor, partial curve, poor fit]	–
Cc1cc(Cl)c(OCCOCCN2CCC(C)CC2)c(Br)c1	inactive	–
CCN(CC)P(=O)(Nc1cccc(C(F)(F)F)c1)c1ccc(N(C)C)cc1NC(=O)c1ccco1 (stereo not given)	inconclusive: 26.7 µM [inhibitor, single point]	–
O=[N+]([O-])c1cc(C(F)(F)F)ccc1NC1CCN(Cc2ccccc2)C1 (stereo not given)	inactive	–
Cc1ccc(-c2nnc(Nc3ccc(O)cc3)c3ccccc23)cc1S(=O)(=O)N1CCOCC1	inconclusive: 39.8 µM [inhibitor, single point]	–
CCNC(=O)C1(C)CCCN(Cc2csc(-c3ccc(Cl)cc3)n2)C1 (stereo not given)	inactive	–
COc1cc(NS(=O)(=O)c2ccc3[nH]c4c(c3c2)CCCCCC4)cc(OC)c1	inconclusive: 39.8 µM [inhibitor, single point]	–
O=C(CSc1ccc(Cl)cc1)Nc1nnc(-c2ccco2)o1	inactive	–
Cc1ccc(OCc2nc3ccccc3n2CCOc2ccc(Cl)cc2)cc1	inconclusive: 20 µM [inhibitor, partial curve, poor fit]	–
CC(Oc1ccc(Br)cc1Cl)C(=O)Nc1ccncc1 (stereo not given)	–	inconclusive: -61.8% [inhibitor]

Compound	Potency	activity change, negative = inhibition
Cc1cncn1CCc1nc2c3ccccc3nc(SCC(=O)Nc3cccc(Cl)c3)n2n1	active: 22.4 µM and active: 25.1 µM	–
CC(C)c1cccc(C(C)C)c1NC1=NS(=O)(=O)c2ccccc21	inactive	–
CCN1C(=O)/C(=C\N2CCN(c3cccc(Cl)c3)CC2)SC1=S	inconclusive: 6.31 µM [inhibitor, partial curve, poor fit]	–
CC(Nc1nc(-c2ccc(F)cc2)cs1)c1nc2cc(Cl)c(N3CCCCC3)cc2n1CCOCCO (stereo not given)	inconclusive: 39.8 µM [inhibitor, single point]	–
CCCCCc1c2c(cc(O)c1C(=O)O)OC(=O)c1c(cc(OC)cc1C(=O)CCCC)O2	inconclusive: 26.7 µM [inhibitor, single point]	–
COCCN1C(=O)c2[nH]nc(-c3cc(C)ccc3O)c2C1c1ccc(C(C)C)cc1 (stereo not given)	inconclusive: 31.6 µM [inhibitor, single point]	–
COc1ccccc1CNC(=O)COC(=O)[C@H](Cc1c[nH]c2ccccc12)NC(=O)c1cccs1	inactive	–
CCOc1cc(/C=C/C(=O)c2ccc(C)cc2)ccc1OCC(=O)N(C)C	inconclusive: 39.8 µM [inhibitor, single point]	–
CCOc1ccc2nc(N3C(=O)CNC3=S)sc2c1	inconclusive: 39.8 µM [inhibitor, single point]	–
CC(C)C(=O)Nc1ccc(NC(=O)c2ccccn2)cn1	inconclusive: 17.8 µM [inhibitor, single point]	–
Oc1ccc(Br)cc1/C=N/NC(=S)NCCc1ccccc1	inconclusive: 39.8 µM [inhibitor, single point]	–
Cc1ccc(C(=O)Nc2nc(C(N)Cc3ccc(C(F)(F)F)cc3)cs2)cc1 (stereo not given)	inconclusive: 28.2 µM [inhibitor, single point]	–
COc1cc(OC)nc(Nc2nc(C(N)Cc3ccc(F)cc3)cs2)n1 (stereo not given)	inconclusive: 39.8 µM [inhibitor, single point]	–
CS(=O)(=O)c1ncc(Cl)c(C(=O)Nc2ccc(N3CCOCC3)cc2)n1	inconclusive: 39.8 µM [inhibitor, single point]	–
CN(C)CCCN(C(=O)c1ccc(Br)s1)c1nc2cc3c(cc2s1)OCO3	inconclusive: 17.8 µM [inhibitor, single point]	–
CC[C@]1(C(=O)OC)[C@H]2C(=O)N(C)C(=O)[C@H]2[C@H]2CN=C(SCc3ccc(OC)cc3)N21	inconclusive: 3.55 µM [inhibitor, partial curve, poor fit]	–
CC(=O)c1ccc(N2CCN(S(=O)(=O)c3ccc4c(c3)CC(C)N4C(C)=O)CC2)cc1 (stereo not given)	inactive	–
O=C(Nc1nc2n(n1)C(c1ccc(F)cc1)CC(c1ccccc1)N2)c1ccco1 (stereo not given)	inactive	–
O=C(Nc1cccc(F)c1)c1ccco1	inactive	–
Cc1ccc(NC(=O)Cn2c(=O)n(CCc3ccccc3)c(=O)c3c4c(sc32)CCCC4)c(C)c1	inactive	–
Cc1c2ccncc2cc2c1[nH]c1ccccc12	inconclusive: 22.4 µM [inhibitor, single point]	–
CC(=O)c1ccc(N/N=C(/C(N)=O)C2=NC(C)(C)Cc3ccccc32)cc1	inconclusive: 35.5 µM [inhibitor, single point]	–

Compound	Potency	activity change, negative = inhibition
O=C(Nc1ccc(F)cc1F)c1c(C(F)(F)F)ccnc1Oc1cccc(C(F)(F)F)c1	inactive	–
Cc1ccc(-c2noc(CSc3nnc(Cc4ccccc4)n3-c3cccc(C)c3)n2)cc1	inconclusive: 39.8 µM [inhibitor, single point]	–
CCCN(CCC)CCCNC(=O)c1cc2c(=O)n(C)c3ccccc3c2n1C	inconclusive: 39.8 µM [inhibitor, partial curve, poor fit]	–
CC(C)c1ccc(OCc2ccc(C(=O)N3CCCC3)o2)cc1	inconclusive: 25.1 µM [inhibitor, single point]	–
Cc1ccc(Nc2nc(N)nc(CCl)n2)c(C)c1	inconclusive: 25.1 µM [inhibitor, partial curve, poor fit]	–
CC1(C)c2[nH]c3ccccc3c2C[C@H]2C(=O)N(Cc3ccccc3)C(=O)N21	inconclusive: 39.8 µM [inhibitor, single point]	–
COCCNC(=O)c1cc2nc3c(c(C(F)(F)F)n2n1)CCc1ccccc1-3	inconclusive: 1.68 µM [inhibitor, partial curve, poor fit]	–
O=C1N[C@@H](Cc2ccccc2)COC(=O)[C@@H](Cc2ccc(F)cc2)CC/C=C/C[C@@H]1CC(=O)N(CCO)Cc1ccccc1	inconclusive: 39.8 µM [inhibitor, single point]	–
CC1(C)CC(=O)C=C(c2ccc(-c3cccc(C(N)=O)c3)cc2)C1=O	inactive	–
O=[N+]([O-])c1ccc(N2CCN(CCOc3nonc3-c3ccccc3)CC2)c(Cl)c1	inactive	–
CCC(C)c1ccc(-c2cc(C(=O)OCC(=O)Nc3cc(C)on3)c3ccccc3n2)cc1 (stereo not given)	inconclusive: 39.8 µM [inhibitor, single point]	–
CCc1ccc(/C=C2\SC(=S)N(CCCC(=O)Nc3nccs3)C2=O)cc1	inconclusive: 8.91 µM [inhibitor, partial curve, poor fit]	–
CCn1c(C)nnc1SCC(=O)Nc1ccccc1OC	inactive	–
CCOC(=O)[C@@H](N)Cc1ccc(-c2cc(O[C@H](c3ccc(Cl)cc3-n3ccc(C)n3)C(F)(F)F)nc(N)n2)cc1	inconclusive: 34.3 µM [inhibitor, single point]	–
COc1cnc(-c2ccccn2)nc1N(C)C	active: 15.8 µM	–
CC1OC(Nc2cccc3ccccc23)C(O)C(O)C1O (stereo not given)	inactive	–
C#CCOc1ccc(-c2nnc(Nc3cccc(C)c3)c3ccccc23)cc1	inconclusive: 28.2 µM [inhibitor, single point]	–
COc1ccc(-c2csc(Nc3ccc(S(N)(=O)=O)cc3)n2)cc1OC	inconclusive: 0.562 µM [inhibitor, full curve, poor fit]	–
CSc1nn(Cc2ccc(Cl)cc2)c(N(C(C)=O)C(C)=O)c1S(=O)(=O)c1ccccc1	inconclusive: 25.1 µM [inhibitor, single point]	–
COc1ccc(CC2C(=O)NC(C)C(=O)N(C)C3Cc4ccc(cc4)Oc4cc(ccc4O)CC(C(=O)NC(C)C(=O)NC(C)C(=O)N2C)N(C)C3=O)cc1 (stereo not given)	active: 0.238 µM	–
COc1ccc(/C=C/C(=O)c2cc(F)ccc2OC(=O)c2ccccc2OC)cc1OC	inconclusive: 13.4 µM [inhibitor, partial curve, poor fit]	–
